Assay results reported in ChEMBL document CHEMBL1157539, “Thousands of chemical starting points for antimalarial lead identification” (Nature, 2010).
Over roughly 13,000 compounds, “IFI” has its median near 4; the highest 2% begin near 17. The list shows a part of the results.

Assay: GSK_TCMDC: Inhibition Frequency Index (IFI). The number of non-kinase HTS assays where a compound showed > 50 % inhibition, expressed as a percentage of the number of such assays in which the compound was tested (-0 is zero)
Assay type: functional
Compound CC(C)(C)c1cc(C(=O)N2CCN(c3nccnc3C#N)CC2)n(Cc2ccccc2)n1 has an IFI of 1.45%.
For O=C(NCCCCN1CCC(c2ccc3c(c2OCc2ccncc2)CCCC3)CC1)c1ccc(NC(=O)c2ccc(Cl)cc2)cc1, the IFI was 9.57%.
O=C(Nc1ccc(Cl)c(C(F)(F)F)c1)Nc1ccc(Cl)c(C(F)(F)F)c1 gave an IFI of 12.7%.
In the case of COc1cc2nccc(Nc3cccc(Oc4ccccc4)c3)c2cc1OC, the IFI is reported as 1.44%.
With N#Cc1ccc(NC(=O)N2CCCN(CCCCCNC(=O)/C=C/c3ccc(Cl)c(Cl)c3)CC2)cc1 the IFI was 4.7%.
In the case of COc1ccc2ccc(F)c(CC(=O)N3CCOC(CNCc4cccc(-c5ccc(F)cc5)n4)C3)c2n1 (stereo not drawn), the IFI is reported as 2.78%.
With CC(Cc1ccc(Cl)cc1)Nc1nc(NC2CCCC2)nc(N2CCC(C#N)(c3ccccc3)CC2)n1 (stereo not drawn) the IFI was 0.77%.
Work on COc1ccc2nccc([C@@H](O)CN3CCC(NCc4ccc(OC)c(NC(C)=O)c4)CC3)c2c1 yielded an IFI of -0%.
Work on CN(C)CCOc1ccc(-c2cc(-c3ccncc3)c(-c3ccc(Cl)c(O)c3)o2)cc1 yielded an IFI of 6.99%.
Cc1ccccc1OCC(O)CNC1CCC(NCC(O)COc2ccccc2C)CC1 (stereo not drawn) showed an IFI of 14.1%.
Fc1ccc2c(NN=Cc3ccccc3)ccnc2c1 gave an IFI of 2.88%.
Compound CN(C)CCNCc1cccc(-c2ccc3c(Nc4ccc(Oc5ccccc5)cc4)ccnc3c2)c1 has an IFI of 5.04%.
With C=CCN(c1ccc(OC)cc1)S(=O)(=O)c1ccc(Cl)c(C(=O)Nc2cccc(C#N)c2)c1 the IFI was 3.95%.
CS(=O)(=O)c1ccc(CCNCc2ccc(-c3ccc(CNC4Cc5ccccc5C4)cc3)nc2)cc1 gave an IFI of 5.44%.
For Oc1ccc(-c2cc(COc3ccccc3C(F)(F)F)c(C3=CCNCC3)cc2COc2ccccc2C(F)(F)F)cc1, the IFI was 17.3%.
In the case of N#Cc1ccnc(-c2ccc(CNC3CCN(CC4Cn5c(=O)ccc6ccc(F)c4c65)CC3)cc2)c1 (stereo not drawn), the IFI is reported as 1.85%.
For CCn1cnc2c(N3CCCS3(=O)=O)cc(C(=O)N[C@@H](Cc3ccccc3)[C@H](O)CNC(C)(C)c3cccc(C(F)(F)F)c3)cc21, the IFI was 3.73%.
CC(C)(C)c1ccc(CN2CCC(CNC(=O)c3cc(-c4ccccc4C(F)(F)F)cs3)C2)cc1 (stereo not drawn) gave an IFI of 13.7%.
Work on CCN(CCN(C)C)Cc1ccc(-c2ccc(NS(=O)(=O)c3cccc(Cl)c3)cc2)cc1 yielded an IFI of 9.52%.
With CCNc1cc(C(=O)N[C@@H](Cc2ccccc2)[C@H](O)CNC(C)(C)c2cccc(OC)c2)cc(N2CCCC2=O)c1 the IFI was 2.36%.
With CCCN(CCCCNC(=O)c1ccc(-c2cccnc2)cc1)C1CCc2c(O)cccc2C1 (stereo not drawn) the IFI was 2.05%.
Compound CCc1sc(-c2cc(Cl)ccc2OC)nc1C(=O)NCCN1CCCCC1 has an IFI of 4%.
With NOCCCCOc1ccccc1 the IFI was -0%.
Cc1ccc(Cc2c[nH]c(NCCSCc3ccc(CN(C)C)s3)nc2=O)cn1 gave an IFI of -0%.
Compound COc1cc2c(C3CCN(CC4CCN(C(=O)/C=C/c5ccc(Cl)c(Cl)c5)CC4)CC3)c[nH]c2cn1 has an IFI of 1.54%.
Work on CC(C)CNCc1ccc(-c2ccc(CNC3CCN(Cc4ccccc4)CC3)cc2)cc1 yielded an IFI of 3.52%.
Compound COc1cc(CNc2ccc(N3CCCC3)cc2)cc(Cl)c1OC has an IFI of 11.7%.
O=C(Nc1cccc(CN2CCCN(Cc3ccc(O)cc3)CC2)c1)c1ccc2ccccc2c1 showed an IFI of 3.42%.
Cc1cccc2nc(-c3ccc(-c4ccc(CNCC5CCCO5)cc4)s3)[nH]c12 (stereo not drawn) showed an IFI of 5.88%.
CCN(CC)CCOC(=O)c1ccc(NC(=O)c2cc(-c3ccc(C)cc3)nc3ccccc23)cc1 showed an IFI of 7.97%.
With c1cncc(Oc2ccc(Nc3ccnc4cc(-c5cccc(CN6CCOCC6)c5)ccc34)cc2)c1 the IFI was 3.79%.
For Cc1cccc(CC2CC(=O)N(c3ccc([N+](=O)[O-])cc3)C2=O)c1 (stereo not drawn), the IFI was 2.11%.
With O=C(CC1CCCC1)N(Cc1ccc(-c2ccc(CNC3Cc4ccccc4C3)cc2)cc1)CC1CCCCN1 (stereo not drawn) the IFI was 4.48%.
COc1ccc2c(=NN=CC=Cc3ccccc3)cc(C)[nH]c2c1 showed an IFI of 4.14%.
COc1ccc(NC(=O)NC2CCN(c3ccnc4ccccc34)C2)cc1 (stereo not drawn) showed an IFI of 0%.
With Cc1[nH]c(C)c(-c2ccc(-c3cccc(Cl)c3)nc2)c(=O)c1Cl the IFI was 1.82%.
O=C(Nc1ccc(C(=O)Nc2ccc(C3=NCCN3)cc2)cc1)Nc1ccc(C2=NCCN2)cc1 showed an IFI of 5.84%.
Compound Nc1nc(N)c2c(Cl)c(CNc3cccc(C(=O)O)c3)ccc2n1 has an IFI of 2.34%.
CCOC(=O)c1nc(-c2cccnc2)[nH]c1NC(=S)NCc1ccccc1 showed an IFI of 3.15%.
N[C@@H](COc1cccc2c(-c3ccncc3)c(-c3cccc(NC(=O)Nc4ccccc4)c3)nn12)c1ccccc1 showed an IFI of 10.2%.
COc1ccc(Cn2c(SCc3ccc(C)cc3)nc3cc(OC)c(OC)cc3c2=N)cc1Cl showed an IFI of 14.5%.
With Cc1cc(F)ccc1Nc1nc(N(C)c2ccccc2)c2cccc(OCCO)c2n1 the IFI was 6.99%.
Compound COc1cccc(C(O)CNc2ccnc(Nc3cccc(-c4csc(C)n4)c3)n2)c1 (stereo not drawn) has an IFI of 10.6%.
O=C(NCCCCN1CCC(c2c[nH]c3ccccc23)CC1)c1sc(-c2ccc(C(F)(F)F)cc2)nc1CO gave an IFI of 2.68%.
In the case of CCCN1CCCN(Cc2cccc(NC(=O)c3ccc(-c4ccccc4)cc3)c2)CC1, the IFI is reported as 3.45%.
COc1ccc2nccc([C@@H](O)CN3CCC(NC(=O)C(c4cc5ccccc5o4)N4CCN(Cc5ccccc5)CC4)CC3)c2c1 (stereo partly drawn) gave an IFI of 4.83%.
With O=C(Nc1cccc(CN2CCCN(Cc3ncc[nH]3)CC2)c1)c1ccc(Cl)c(Cl)c1 the IFI was 2.67%.
Compound CCC[C@@H]([C@@H](CC1CCCCC1)C(=O)N[C@@H](CCOC(=O)NCC)C(=O)Nc1nccs1)N(O)C=O has an IFI of 3.17%.
COc1ccc(-c2cc(C(=O)N[C@@H](Cc3ccccc3)C(=O)NCCN3CCCCC3)ccc2O)cc1 gave an IFI of 0.75%.
In the case of O=C(CN1C(=O)CC1S(=O)(=O)Cc1ccco1)NCCCCCCc1ccc(F)cc1 (stereo not drawn), the IFI is reported as 4.35%.
CN(C)c1ccc(-c2csc(C(=O)NCC3CCN(CCC(C)(C)C)C3)c2)cc1 (stereo not drawn) showed an IFI of 8.16%.
CC1(C)NC(N)=NC(=N)N1OCc1cccc(Cl)c1Cl gave an IFI of 1.42%.
Work on Cc1cc(NC(=O)NCCN2CCC(NC(=O)c3ccc(C(F)(F)F)cc3)CC2)c2ccccc2n1 yielded an IFI of 1.69%.
With COc1ccc(Nc2ncc(OC)c(Nc3ccccc3C(N)=O)n2)cc1N1CCN(C)CC1 the IFI was 11.5%.
With CCN(CCNC(=O)Cn1c(C)cc2cc([N+](=O)[O-])ccc21)c1cccc(C)c1 the IFI was 2.1%.
In the case of CS(=O)(=O)n1c(CN2CCN(c3ncc(C(F)(F)F)cc3Cl)CC2)nc2ccccc21, the IFI is reported as -0%.
For Nc1cccc(CNCc2cccc(-c3ccc(-c4nc5ccccc5[nH]4)s3)c2)c1, the IFI was 5.71%.
Work on CS(=O)(=O)N(c1ccccc1)c1cc(C(=O)N[C@@H](Cc2ccccc2)[C@H](O)CNC2CCCCC2)cc(N2CCCC2=O)c1 yielded an IFI of 2.29%.
Compound O=C(C=Cc1ccc(Cl)c(Cl)c1)NCCCCCN1CCC(c2n[nH]c3ccccc23)CC1 has an IFI of 4.2%.
In the case of COc1ccc(-c2cccc(NC(=O)c3ccc(Cl)cc3)c2)cc1CN(C)CCN(C)C, the IFI is reported as 11.7%.
For Cc1cc(N2Cc3ccccc3C2)nc(Nc2cccc(C#N)c2)n1, the IFI was 2.7%.
O=C(NCCNc1ccnc(NCc2ccc(F)cc2)n1)c1cc2ccccc2s1 gave an IFI of 3.03%.
Compound CCC(C)NCc1c(O)ccc2c(CNC(C)CC)c(O)ccc12 (stereo not drawn) has an IFI of 2.21%.
C=CCOc1cccc2c1CCN(CCN1CCC(NC(=O)c3ccc(-c4ccc(Cl)cc4)cc3)CC1)C2 gave an IFI of 7.58%.
In the case of Cc1cccc2nc(-c3cccc(-c4cccc(NC(=O)c5ccncc5)c4)c3)[nH]c12, the IFI is reported as 8.7%.
Work on CCC1=C(CC2NCCc3cc(OC)c(OC)cc32)CC2c3cc(OC)c(OC)cc3CCN2C1 (stereo not drawn) yielded an IFI of 10.8%.
COCCOc1ccc(Nc2nccc(-c3c(-c4cccc(NC(=O)c5c(F)cccc5F)c4)nn4ccccc34)n2)cc1Cl showed an IFI of 5.3%.
For COc1cc(NC(=O)N2CCOC(CCN3CCC4(CCc5ccccc54)CC3)(c3ccc(Cl)c(Cl)c3)C2)cc(OC)c1 (stereo not drawn), the IFI was 6.16%.
With CCOC(=O)c1c(CN2CCCC2)n(-c2ccccc2)c2cc(Br)c(O)cc12 the IFI was 2.14%.
Compound Fc1cccc(COc2ccc(Nc3ncnc4sc(C#CC5CCCCN5)cc34)cc2Cl)c1 (stereo not drawn) has an IFI of 12.9%.
COc1ccc(C(=O)NCc2ccccc2-c2ccc(C(C)(C)C)cc2)cc1O showed an IFI of 2.94%.
Work on Nc1cc(C(F)(F)F)ccc1Cl yielded an IFI of -0%.
Compound O=C(Nc1ccnc2ccccc12)NC1CCN(Cc2ccccc2)CC1 has an IFI of 2.26%.
Compound Oc1ccc(CN2CCC(N3CCN(CCc4ccccc4)CC3)C(O)C2)cc1Cl (stereo not drawn) has an IFI of -0%.
For O=C(Nc1ccc(N2CCCN(Cc3cccc(F)c3)CC2)cc1)c1ccccc1, the IFI was 16.7%.
In the case of CCN(CC)CCCCNc1cc(-c2[nH]c(C(C)(C)C)nc2-c2ccc3cc(OC)ccc3c2)ccn1, the IFI is reported as 4.38%.
Work on Nc1ncnc2c1ncn2C(CO)Cc1ccc(O)cc1 (stereo not drawn) yielded an IFI of 1.46%.
With O=C(Nc1ccc(Cn2ncc(N3CCCNCC3)c(Cl)c2=O)cc1)Nc1ccc(SC(F)(F)F)cc1 the IFI was 8.82%.
Compound CCOC(=O)c1c(CCc2ccc(C(F)(F)F)cc2)nc2c(c1-c1ccc(C(=O)N[C@@H](C)c3ccncc3)cc1)C(=O)N1CCC[C@@H]21 has an IFI of 1.59%.
With CCCCCCCN1CC[C@@H](C[C@H](N)Cc2ccnc3ccc(OC)cc23)[C@@H](CC)C1 the IFI was 2.86%.
CN1CCN(c2ccc(-c3cccc(NC(=O)c4cccc(Cl)c4)c3)nn2)CC1 gave an IFI of 1.64%.
For Cc1cccc(Cl)c1S(=O)(=O)Nc1cccc(CCN2CCC(N3CCCCC3)CC2)c1, the IFI was 6.45%.
CCc1ccc(N2C(=O)C3C(Cc4ccc(OC(C)(C)C)cc4)NC4(C(=O)N(Cc5ccccc5)c5ccc(F)cc54)C3C2=O)cc1 (stereo not drawn) gave an IFI of 1.44%.
With c1ccc2c(CNc3nc(NCC4CCCCC4)nc4[nH]cnc34)cccc2c1 the IFI was 8.85%.
Compound O=C(Nc1ccc(C(F)(F)F)cc1)c1ccc(S(=O)(=O)NC2CCN(CC3CCCCC3)C2)cc1 (stereo not drawn) has an IFI of 5.95%.
COc1ccc2c(N/N=C/c3cccc([N+](=O)[O-])c3)ccnc2c1 showed an IFI of 1.44%.
For CCCN(CC1CC1)c1ncc(-c2ccccc2CNCc2ccccc2O)cn1, the IFI was 4.88%.
In the case of O=S(=O)(Nc1ccc(CCN2CCC(N3CCCCC3)CC2)cc1)c1cccc2cccnc12, the IFI is reported as 8.33%.
